The source gives no read counts; variants with many changes may rest on few reads.
B1: LINE1-mini (parent)
chain: GGCAGAGCUCAACACAGCGUGGCAAAGUGGCUGUGGCUAGACUGCC

Variants of: B1
Assay: self-cleavage, relative activity (ratio to wild type); higher = more cleavage; in vitro, sequencing; the parent is a self-cleaving ribozyme

| Variant | self-cleavage |
| --- | --- |
| A25U U43A C46U | 0.04 |
| A4G A12U G22C G29A C46U | 0.23 |
| A16G C31G U32G | 0.01 |
| A6U C8A G35U | 0.3 |
| G22A C31G C37A | 0.04 |
| C3G A14C C15U A24C G27U G29U G33U | 0.09 |
| G7C C15G C37U | 0.05 |
| G33U A39C C45U | 0 |
| A4G G17U G44U | 0.03 |
| C3G C8U G33C C45U | 0.13 |
| U9A G33U C45G | 0.04 |
| A4U G19C G21C | 0.16 |
| A12C G22C G35C A41C C46U | 0 |
| C3U A4U G5C G22C | 0.19 |
| G1A A24U G44U | 0.04 |
| G1C C10A U32G G40C | 0.02 |
| A4G A6C C15U C37G | 0.07 |
| G5U G7U C15U C46U | 0.1 |
| G1C C18A U20G C23U A26U | 0.01 |
| G19U U38G C46U | 0.02 |
| G2C A4G A26C U34C | 0.09 |
| G19U A24U G30A | 1.8 |
| A4U G22U G30U G33U | 0.14 |
| C3A C8A A14C | 0.12 |

| Variant | self-cleavage |
| --- | --- |
| G1C G7U G17A U20C G40C | 0.03 |
| G1C C3U C8A C23U | 0.21 |
| G2C G29C G40U | 0.02 |
| G7C A14C U20C A41G C42G | 0.02 |
| C13G A14C A16G A41U C46G | 0.02 |
| A4G U9A A25U G27C U32A U34C | 0.1 |
| C18U A25G G35C A39G | 0.02 |
| C8G U20C U32C | 0.03 |
| C3A G22A A24G C31U G36C | 0.07 |
| G33U C37G C46A | 0.07 |
| G17U G27U U32C | 0.09 |
| A12C A25U C46G | 0 |
| G5A U20C A41U | 0.08 |
| C3G A24G U32G | 0.06 |
| C10G U20C A25G | 0.02 |
| A4C G5U U32A G35U | 0.06 |
| U9A C10A A39U | 0.04 |
| C8U G27U G30C C37U | 0.01 |
| G19U G40A C42U | 0.01 |
| A6C G22C U38C | 0.04 |
| A6G G22A U28G C42A | 0.1 |
| G5C C13A G30U | 0.03 |
| C3G G5C C8A | 0.14 |
| G7C G30U C37A | 0.1 |

| Variant | self-cleavage |
| --- | --- |
| A4G A24C U43A | 0 |
| G7C C18U G36U G44C | 0.11 |
| C8U A16G G21A G22U U32G U38G | 0.02 |
| A11U A14U C31G | 0.01 |
| A4G G7U U20C | 0.07 |
| A4U G27A U34A U38A U43C G44A | 0.04 |
| A4C C18A G19A | 0.34 |
| G2A G35U G40A | 0.2 |
| C3U A11G C15G G29U | 0.03 |
| C8A C23A C31G | 0.24 |
| G1A G2A C8A C18A U20A A24U | 0.15 |
| A4G A16U G33C C45A | 0.02 |
| A6G C10G C18G U28A | 0.01 |
| C3U G36A U38A | 0.34 |
| G5U A14C G40A | 0.08 |
| G5U G33A U34G | 0.03 |
| G1C C13A G19C C46U | 0 |
| G21C C23G C31U A41G G44U | 0.01 |
| G7U G22C G35U G36U | 0.11 |
| G7U G33U G40U A41U | 0.05 |
| C8U A14G G36A C46U | 0.02 |
| G1A G30U G44U | 0.21 |
| C3A C8G U9G | 0.04 |
| C13A A25C C31G | 0.04 |

| Variant | self-cleavage |
| --- | --- |
| A4U A16G G17U | 0.14 |
| C8G C31U A41C G44U | 0.08 |
| C18A U20A G22C C46U | 0.16 |
| A4C G30A A39G U43A | 0.12 |
| A6G C13U G40U | 0.01 |
| G7A A14C C42A C45A | 0.08 |
| U9C A11U G17A A25G C37U | 0.01 |
| C13A G21C C42G | 0.09 |
| G5U C10G G29U | 0.02 |
| G7U G40C C42U | 0.03 |
| U20A A25U G27A | 1.16 |
| A12C G29A C37G C45A | 0 |
| G5A C18G A25G | 0.2 |
| A11C G30U A41G | 0.02 |
| G5A G7U G17A A25C | 0.06 |
| C3G U20G C23G | 0.01 |
| A4G A24C A26C G35A | 0.04 |
| A14G U28A C31U | 0.06 |
| C13U A16C U43C | 0.08 |
| A12G C23A U28C | 0.01 |
| C8A A25C C46A | 0.11 |
| A11G C15A G21U C23A G30A C37U | 0.04 |
| G1U U28G G33A | 0 |
| G2U C10A G27A G35A | 0.01 |

| Variant | self-cleavage |
| --- | --- |
| G5A A14G C18A A26U G35A C42A | 0.18 |
| A6C U20G G27C | 0.52 |
| C13A A14U C45U | 0.22 |
| C18U G27A C45A | 0.33 |
| G5U A6U A14C C37U G44C | 0.08 |
| A14G A16C C23A G40A | 0 |
| G5U C8U C23G | 0.12 |
| G17C C23U G35C C45G | 0.01 |
| G1U A24U C46A | 0.62 |
| G2A A25G U34C C42G | 0.18 |
| G17U A25C A39G A41G | 0.01 |
| G2C C10G C15A G17C A26G | 0.01 |
| U9C C13U C15G | 0.04 |
| C23A U38G A39U | 0.1 |
| C18A A24C G44U | 0.01 |
| A11G G21C A26U G44U | 0.02 |
| G17U A26C U43C | 0.03 |
| G2A U9A G40A | 0.01 |
| G17U G22U G44A | 0.07 |
| A12U G19U G36A G44U | 0.01 |
| C13A C15A G17A G36U | 0.01 |
| A4G A16C G17C | 0.09 |
| G2C A6G C18A G21C C46U | 0.03 |
| C3G C8U U9G U20G G36C | 0.31 |

| Variant | self-cleavage |
| --- | --- |
| C3A G5U C8G A11U G27C C37A | 0.01 |
| G5U A14G U32G A39U | 0.02 |
| A16G G19U G44C | 0.46 |
| A12U G33U C37A U43A | 0.39 |
| U9C G17U U43G | 0.02 |
| G1A A4C A11U A12C C15G | 0 |
| A4U C18G C45A | 0.06 |
| U9C G17A U20C | 0.01 |
| G7A C13G U43C | 0.34 |
| G1C C8U U20C | 0.02 |
| G5C G29U C31G | 0.04 |
| C10A A25C G29U G33U C45U | 0.03 |
| A4C G7U C13U C15U C18G | 0.12 |
| A16G G19A G35A | 0.01 |
| A12U A26C C31G G44A | 0.02 |
| U9G C15G G30A U38G | 0 |
| G5U C13U G19A G40C | 0.18 |
| C18G G19A C31A | 0.14 |
| G5C A6U G44A | 0.03 |
| A11G C31A A41G | 0.02 |
| G21A A25C G27A | 0.72 |
| C8G G17C G44C | 0.02 |
| A6U C10G A14C A25U A26C G36C C45U | 0 |
| U9C G22A C31G | 0.01 |

| Variant | self-cleavage |
| --- | --- |
| C10U G19C U32C | 0.09 |
| G1U C23A C37A | 0.01 |
| A6G U20G G44A | 0.1 |
| C3G C23U U32A G40U | 0.05 |
| A11C G27A A41C | 0.02 |
| A14G G22A A24C A41C C46A | 0.03 |
| U9G G22U G35U | 0.03 |
| C3U A4C G7U | 0.25 |
| A11C G22U C42A | 0.01 |
| G2A C31A A39U | 0.15 |
| C3G C18A C42G | 0.04 |
| U9A C15A G19A | 0.11 |
| C37A A39C C46A | 0.11 |
| A4G C10G C42G | 0.02 |
| G1C A14G C31U | 0.01 |
| A4U C18A G19C G21U | 0.36 |
| A24U A26U A39G | 0.02 |
| C3A G22C C45G | 0.02 |
| A16U G40C A41G | 0 |
| G5U U20A G33C C46U | 0.04 |
| G7U A14G G27A G30A C31A U34A U38G C45A | 0.07 |
| G5C C8G C23A G27A G44U | 0.03 |
| A14C G19A A24U U28G | 0.01 |

— the RNAGym collection of RNA variant scans (doi:10.7554/elife.90254)
